This is an account of results in article PMC4323006.

Protein sequences, listed by entry. Tags and fused reporters are not part of them.
UniProt Q16665: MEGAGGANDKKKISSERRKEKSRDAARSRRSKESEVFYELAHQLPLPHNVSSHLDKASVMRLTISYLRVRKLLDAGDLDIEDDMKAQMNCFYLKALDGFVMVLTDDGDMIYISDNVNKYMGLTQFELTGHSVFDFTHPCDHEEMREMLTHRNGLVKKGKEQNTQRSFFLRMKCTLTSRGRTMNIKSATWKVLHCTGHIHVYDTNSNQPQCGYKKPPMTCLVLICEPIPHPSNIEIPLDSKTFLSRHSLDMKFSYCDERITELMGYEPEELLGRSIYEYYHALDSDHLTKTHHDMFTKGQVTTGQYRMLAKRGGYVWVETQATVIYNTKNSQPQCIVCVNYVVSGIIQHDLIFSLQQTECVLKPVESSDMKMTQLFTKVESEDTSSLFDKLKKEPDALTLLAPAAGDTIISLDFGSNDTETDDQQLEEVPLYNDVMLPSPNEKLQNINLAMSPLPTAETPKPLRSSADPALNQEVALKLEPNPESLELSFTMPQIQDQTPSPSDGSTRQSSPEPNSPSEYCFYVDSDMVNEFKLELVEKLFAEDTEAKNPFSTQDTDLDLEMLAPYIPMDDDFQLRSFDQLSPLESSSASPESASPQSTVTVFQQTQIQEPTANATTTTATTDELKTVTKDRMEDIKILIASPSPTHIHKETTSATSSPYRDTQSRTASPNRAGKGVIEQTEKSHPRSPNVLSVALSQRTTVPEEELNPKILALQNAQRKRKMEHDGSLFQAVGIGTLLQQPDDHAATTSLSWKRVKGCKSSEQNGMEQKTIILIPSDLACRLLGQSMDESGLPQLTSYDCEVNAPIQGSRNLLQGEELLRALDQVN
UniProt Q9GZT9: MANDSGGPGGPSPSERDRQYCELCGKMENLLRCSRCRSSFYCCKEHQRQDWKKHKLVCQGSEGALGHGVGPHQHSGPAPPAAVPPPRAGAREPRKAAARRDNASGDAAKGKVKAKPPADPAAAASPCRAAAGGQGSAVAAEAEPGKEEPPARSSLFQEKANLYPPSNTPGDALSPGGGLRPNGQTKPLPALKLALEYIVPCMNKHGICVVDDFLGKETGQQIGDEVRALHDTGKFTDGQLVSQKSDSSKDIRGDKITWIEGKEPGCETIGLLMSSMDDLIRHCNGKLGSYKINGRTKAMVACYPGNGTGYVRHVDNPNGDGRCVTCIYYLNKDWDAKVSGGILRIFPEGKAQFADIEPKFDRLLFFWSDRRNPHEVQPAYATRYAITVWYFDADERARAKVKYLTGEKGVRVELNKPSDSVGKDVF
UniProt P40337: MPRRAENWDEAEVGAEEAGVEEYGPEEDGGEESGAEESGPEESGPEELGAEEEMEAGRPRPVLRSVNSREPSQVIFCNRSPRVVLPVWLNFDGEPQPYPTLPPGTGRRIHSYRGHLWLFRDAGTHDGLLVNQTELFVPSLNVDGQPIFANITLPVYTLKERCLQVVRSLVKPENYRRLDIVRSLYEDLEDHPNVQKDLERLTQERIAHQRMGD

No constants are given. Whether binding was seen depends on the method and setting. Binding seen in cells or lysates may run through a third protein. Some binding calls cover weakened binding; strength is not graded here. For some assays here: Tags and fused reporters may be left off the sequences shown.

The target of assay [1] is T1, Endogenous PLD1 (human (endogenous in HEK293)) (UniProt Q13393).
T1 sequence: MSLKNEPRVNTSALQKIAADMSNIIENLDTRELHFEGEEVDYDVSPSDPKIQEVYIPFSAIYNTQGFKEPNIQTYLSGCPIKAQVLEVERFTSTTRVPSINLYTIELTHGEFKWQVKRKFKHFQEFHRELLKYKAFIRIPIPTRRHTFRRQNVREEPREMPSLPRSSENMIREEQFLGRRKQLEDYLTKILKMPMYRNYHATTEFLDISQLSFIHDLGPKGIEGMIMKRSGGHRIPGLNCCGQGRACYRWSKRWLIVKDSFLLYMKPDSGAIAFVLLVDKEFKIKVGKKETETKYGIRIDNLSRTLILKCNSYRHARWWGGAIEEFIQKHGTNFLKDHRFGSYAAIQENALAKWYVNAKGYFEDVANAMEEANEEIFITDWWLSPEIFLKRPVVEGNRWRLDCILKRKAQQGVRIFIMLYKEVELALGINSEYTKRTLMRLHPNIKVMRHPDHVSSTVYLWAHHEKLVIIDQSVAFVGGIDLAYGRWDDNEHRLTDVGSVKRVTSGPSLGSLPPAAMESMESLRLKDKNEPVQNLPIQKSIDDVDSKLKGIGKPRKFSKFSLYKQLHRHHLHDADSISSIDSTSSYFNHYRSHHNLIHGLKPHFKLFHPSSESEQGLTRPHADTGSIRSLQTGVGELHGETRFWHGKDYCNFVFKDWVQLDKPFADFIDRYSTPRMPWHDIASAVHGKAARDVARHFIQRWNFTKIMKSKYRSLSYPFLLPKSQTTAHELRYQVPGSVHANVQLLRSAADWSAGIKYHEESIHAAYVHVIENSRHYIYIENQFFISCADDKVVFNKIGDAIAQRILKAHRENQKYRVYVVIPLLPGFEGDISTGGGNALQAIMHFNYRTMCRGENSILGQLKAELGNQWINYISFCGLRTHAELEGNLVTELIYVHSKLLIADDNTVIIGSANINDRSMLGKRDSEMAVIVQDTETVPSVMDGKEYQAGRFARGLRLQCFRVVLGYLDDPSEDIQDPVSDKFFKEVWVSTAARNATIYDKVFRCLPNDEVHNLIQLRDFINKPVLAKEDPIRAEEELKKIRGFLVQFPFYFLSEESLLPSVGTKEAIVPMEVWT
The assay can be described thus: co-IP; sequential: HEK293 lysate (MG132) immunoprecipitated with anti-PHD2; released proteins re-immunoprecipitated with antibody to PLD and blotted with anti-HIF-1α.

Assay [2] has as its target T2, GST-PLD1-PH (pleckstrin homology domain of PLD1, 217-331) (UniProt Q13393).
T2 sequence: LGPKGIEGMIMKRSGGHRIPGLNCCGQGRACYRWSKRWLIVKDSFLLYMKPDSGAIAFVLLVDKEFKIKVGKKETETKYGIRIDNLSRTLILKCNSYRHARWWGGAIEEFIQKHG
The assay is described as follows: pull-down; panel of GST-PLD1 fragments on glutathione-sepharose 4B beads mixed with cell lysates or in vitro-translated proteins (which is not stated), 4°C, 1 h, washed five times with PBS containing 1% triton-X 100; only the target purified.

Assay [3] concerns the target T2, GST-PLD1-PH (pleckstrin homology domain of PLD1, 217-331). The assay can be described thus: pull-down; GST fusion on glutathione-sepharose 4B beads mixed with in vitro-translated protein, 4°C, 1 h, washed five times with PBS containing 1% triton-X 100; only the target purified.
Assay [4] concerns the target T3, GST-PLD1 F2 region (331-497) (UniProt Q13393).
T3 sequence: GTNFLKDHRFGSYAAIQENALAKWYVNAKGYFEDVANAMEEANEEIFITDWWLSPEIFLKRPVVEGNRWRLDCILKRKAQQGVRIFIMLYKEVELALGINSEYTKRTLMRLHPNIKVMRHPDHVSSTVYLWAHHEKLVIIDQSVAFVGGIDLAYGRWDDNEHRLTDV
The assay is described as follows: pull-down; panel of GST-PLD1 fragments on glutathione-sepharose 4B beads mixed with cell lysates or in vitro-translated proteins (which is not stated), 4°C, 1 h, washed five times with PBS containing 1% triton-X 100; only the target purified.

For assay [5], the target named is T4, Phospholipase D1 (PLD1), wild type (UniProt Q13393).
T4 sequence: T1 sequence
The assay is described as follows: co-IP; peptide competition: biotinylated hydroxylated or non-hydroxylated HIF-1α peptide (556-574) added to the immunoprecipitation mixture of cell lysates, MG132; the pairs that are blocked.

Assay [6] has as its target T4, Phospholipase D1 (PLD1), wild type. The assay is described as follows: co-IP; HEK293 lysates (passive-lysis buffer, gentle sonication), antibody with protein A sepharose beads, immunoblot; normoxia, many panels with MG132; some panels with co-expressed PLD1, PLD1-PH, PHD2 or VHL or with DFX; for PLD1-PH under normoxia and hypoxia.
In assay [7] the target is T1, Endogenous PLD1 (human (endogenous in HEK293)). The assay is described as above.
The target of assay [8] is T4, Phospholipase D1 (PLD1), wild type. The assay can be described thus: co-IP; HEK293 cells cultured under hypoxic conditions (1% O2) before immunoprecipitation.

On to “Endogenous HIF-1α (from UniProt Q16665 1-826)”, for which the binding entry in assay [1] is “binds”.

In the case of “HIF-1α (source not stated for the experiment) (from UniProt Q16665 1-826)”, the binding entry in assay [2] is “binds”. As to “In vitro-translated HA-HIF-1α (from UniProt Q16665 1-826)”, the binding entry in assay [3] is listed as “binds”. “PHD2 (prey of the GST pull-down of Figure 2J) (from UniProt Q9GZT9 1-426) (enzyme)”: the binding entry in assay [2] and in assay [4] was “binds” each time. Take “VHL (prey of the GST pull-down of Figure 3G) (from UniProt P40337 1-213)”: the binding entry in assay [2] and in assay [4] was “binds” in each case. Take “von Hippel-Lindau protein (HA-VHL), wild type (from UniProt P40337 1-213)”: the binding entry in assay [5] is on record as “binds”; in assay [6], “binds”; in assay [7] it was “binds”; in assay [8], “no binding (condition: under hypoxia (1% O2))”.
